{
  "source": "PubChem BioAssay AID1963576",
  "about": "(National Center for Advancing Translational Sciences (NCATS), 2024)",
  "note": "Among all 46,000 compounds or so, about 60 (0.1%) were called active. Not shown: some 3% with an inconclusive outcome. The call rests on the fitted dose curve; in most records, active means well fitted inhibition curve with a large enough effect; inconclusive means small, poorly fitted or top-dose-only effect; inactive means no such curve, though single readings can be large or run the other way. The list shows a part of the results.",
  "data": [
    {"test": "Primary qHTS assay for Inhibitors of ovarian cancer metastasis using an organotypic tumor microenvironment (TME) model; further: nearly all actives have a fitted effect of over 65% in size;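 on activity change, negative = inhibition: plate controls were DMSO wells for no effect and tomatine positive control wells for full effect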.", "conditions": "SKOV3ip1-GFP adhesion/invasion on 3D omental model, fluorescence; series mostly up to 45.8 µM; activity change, negative = inhibition: at the top concentration", "outline": "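Adhesion/invasion was scored as fixed GFP-labeled SKOV3ip1 cell counts (488/509 nm), normalized to DMSO and tomatine controls. Cancer cells in serum-free medium, with four compound doses (0.36-46 umol/L), sat 2 hr at RT then 16 hr at 37 C on a 48 hr fibroblast/mesothelial/ECM culture.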", "values": [
      {"compound": "COc1ccc(OC)c(NC(=O)C2CCN(S(=O)(=O)c3ccc4c(c3)CC(C)N4C(C)=O)CC2)c1", "note": "(stereo unspecified)", "activity change, negative = inhibition": "inactive: 6.01%"},
      {"compound": "CCOc1ccc(NC(=O)CSc2nc3ccsc3c(=O)n2CCC(C)C)cc1", "activity change, negative = inhibition": "inactive: -4.51%"},
      {"compound": "Cc1cc(Nc2cccc(Cl)c2)nc2ccc(NC(=O)COc3ccc(Cl)cc3)cc12", "activity change, negative = inhibition": "inactive: 13.1%"},
      {"compound": "COc1ccc(OC)c(CNC(=O)NCc2noc3ccc(C)cc23)c1", "activity change, negative = inhibition": "inactive: -9.35%"},
      {"compound": "CCC1CN(C(=O)N2CCC(C(=O)NCc3cccc(F)c3)CC2)c2cc(C)ccc2O1", "note": "(stereo unspecified)", "activity change, negative = inhibition": "inactive: -7.2%"},
      {"compound": "Cc1ccc(-n2nc(C)c3c(C(=O)NCCc4ccc(S(N)(=O)=O)cc4)cc(C)nc32)cc1", "activity change, negative = inhibition": "inactive: 7.91%"},
      {"compound": "O=C(CN1C(=O)c2cccnc2Sc2ccccc21)Nc1cc(F)ccc1F", "activity change, negative = inhibition": "inactive: 7.28%"},
      {"compound": "CCN1C(=O)c2ccccc2S(=O)(=O)c2ccc(C(=O)NCc3ccccc3OC)cc21", "activity change, negative = inhibition": "inactive: 1.77%"},
      {"compound": "O=C(CSc1cn(CC(=O)N2CCCCC2)c2ccccc12)NCc1ccccc1Cl", "activity change, negative = inhibition": "inactive: -6.65%"},
      {"compound": "CC(C)c1ccc(NC(=O)c2cc3c(=O)[nH]c4ccccc4c3n2C)cc1", "activity change, negative = inhibition": "inactive: 3.23%"},
      {"compound": "Cc1ccc2oc(-c3ccc(NC(=O)c4oc5ccc(Cl)cc5c4C)cc3)nc2c1", "activity change, negative = inhibition": "inactive: -0.0593%"},
      {"compound": "Cc1ccc(-n2nc(C)c3c(C(F)(F)F)cc(-c4cccnc4)nc32)cc1C", "activity change, negative = inhibition": "inactive: 4.69%"},
      {"compound": "CCc1ccc(NC(=O)CC2C(=O)N(c3ccc(F)cc3)C(=O)N2Cc2ccc(F)cc2)cc1", "note": "(stereo unspecified)", "outcome": "inactive"},
      {"compound": "COc1ccccc1CNC(=O)c1cc(S(=O)(=O)N2CCCC(C)C2)cn1C", "note": "(stereo unspecified)", "outcome": "inactive"},
      {"compound": "COc1ccc(NC(=O)Nc2cc(C(=O)NCc3ccc(C)cc3)ccc2N2CCCC2)cc1", "activity change, negative = inhibition": "inactive: 2.74%"},
      {"compound": "CCCCN(C)CCCNC(=O)c1cn(CC)c2ccc(S(=O)(=O)N3CCc4ccccc4C3)cc2c1=O", "outcome": "inactive"},
      {"compound": "CCOc1ccc(-c2cn3nc(CC(C)C)sc3n2)cc1", "outcome": "inactive"},
      {"compound": "O=C(c1cnn(-c2ccc(F)cc2)c1-n1cccc1)N1CCN(c2ccccc2)CC1", "activity change, negative = inhibition": "inactive: -17.3%"},
      {"compound": "Cc1cccc(NC(=O)Cn2c(SCC(=O)NCc3ccccc3)nc3ccccc32)c1C", "activity change, negative = inhibition": "inactive: 2.55%"},
      {"compound": "COc1ccc(CNC(=O)C2(c3cccs3)CCOCC2)cc1", "activity change, negative = inhibition": "inactive: -4.39%"},
      {"compound": "O=C(NCCSCc1ccccc1)C1CCN(S(=O)(=O)Cc2ccccc2)CC1", "outcome": "inactive"},
      {"compound": "CCOC(=O)c1ccc(N=C2SC(C(=O)Nc3ccccc3)CC(=O)N2C)cc1", "note": "(stereo unspecified)", "activity change, negative = inhibition": "inactive: -9.34%"},
      {"compound": "CCN(CC)c1ccc(C2C(C(N)=O)=C(C)Nc3nc(SCc4ccccc4Cl)nn32)cc1", "note": "(stereo unspecified)", "activity change, negative = inhibition": "inactive: -0.153%"},
      {"compound": "COc1ccc(C)cc1NS(=O)(=O)c1ccc2oc(=O)c3ncn(C)c3c2c1", "activity change, negative = inhibition": "inactive: 1.78%"},
      {"compound": "Cc1ccc(NC(=O)c2ccc(C)c(S(=O)(=O)N3CCCCCC3)c2)cc1", "outcome": "inactive"},
      {"compound": "CCOc1ccc(NC(=O)c2c(NCc3cccs3)sc3c2CCC(C)C3)cc1", "note": "(stereo unspecified)", "activity change, negative = inhibition": "inactive: 12.1%"}
    ]}
  ]
}
